These results are taken from publication PMC6212790.

The other results are listed elsewhere or left out. At the low end of the ranking the order means little.

In this assay the target is T1, GST-Rok (full length) (UniProt O34857).
T1 sequence: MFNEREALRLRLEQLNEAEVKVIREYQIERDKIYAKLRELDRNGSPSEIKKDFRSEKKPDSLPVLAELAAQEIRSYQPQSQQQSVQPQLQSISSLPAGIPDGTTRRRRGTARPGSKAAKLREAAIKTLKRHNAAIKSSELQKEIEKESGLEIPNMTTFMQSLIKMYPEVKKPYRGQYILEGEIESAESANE
Kind of assay: protein binding microarray.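 Further: rank score from −0.5 (least bound) to 0.5 (best bound).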 To be noted: Rok is a gene silencer of Bacillus subtilis; high values mean tight binding; most listed sequences are background and not binding sites; double strand, one strand shown.
For AGTTCATA, the binding signal came to 0.0889 E-score. Consider AGCACACC, for which the binding signal was -0.192 E-score. Then AGGCGATA, with -0.0484 E-score. Under TGCACCCA stands -0.0471 E-score; under CTCCTCAA, -0.138 E-score; under AACACTCA, -0.117 E-score.

The sequence GCCAGCGC returned a binding signal of -0.144 E-score. AAAGGTGT showed a binding signal of -0.102 E-score.

For the sequence CTGTTGGA, the binding signal is -0.156 E-score. Sequence AAAGGTCG registered a binding signal of -0.231 E-score. Then ATTTAAAT, with 0.284 E-score; and AGCCTACG, with -0.165 E-score.

GTGCTACA: the binding signal was 0.06 E-score. Under TAGCCAAA stands 0.155 E-score; under TTGGACAA, -0.00671 E-score. Take CGCCTTAC: the binding signal was -0.136 E-score. Sequence AACATCAG returned a binding signal of 0.188 E-score.

For the sequence CCACTGCG, the binding signal was -0.265 E-score. Then CCCTTACC, with -0.244 E-score; and GTGCCAGA, with -0.263 E-score; and TGCCTAAA, with -0.0428 E-score. Then AGCATTAA, with 0.2 E-score; and TCAGACAA, with 0.019 E-score. Then AATCACCG, with -0.059 E-score; and GGCTACGA, with -0.273 E-score.

The sequence CTGTTCAA gave a binding signal of -0.171 E-score. For ACGTGCGG, the binding signal was 0.0283 E-score.

ATACTAGG returned a binding signal of 0.225 E-score. As for CAAGCAAG, the binding signal was -0.112 E-score. Under AGAAGTTC stands 0.0721 E-score; under ATTCGATG, 0.146 E-score; under AAATTGAA, 0.179 E-score.

Sequence AGGATCAG registered a binding signal of -0.0876 E-score. In turn, AACGGCCT showed a binding signal of -0.354 E-score. Then CTAGACAA, with 0.122 E-score; and ACATAATC, with 0.237 E-score. Under GAGATGTA stands 0.141 E-score; under ATCTTGCA, 0.176 E-score. As for AGAAGACA, the binding signal is 0.0759 E-score. For the sequence AAGACAAA, the binding signal was -0.0369 E-score. Regarding GTTTACGA, the binding signal was -0.0647 E-score. Under AACGACTT stands 0.0518 E-score. Under AATTAGAA stands 0.202 E-score. As to ACTTACAA, the binding signal came out at 0.176 E-score.

With AGGGTGTC, the binding signal was 0.0132 E-score.

In turn, CCTTAATA registered a binding signal of 0.108 E-score. Then AGGCAGGG, with -0.289 E-score. Then CTCGGACA, with -0.0506 E-score; and AATGCGAC, with 0.00857 E-score. As for CGTAGTGA, the binding signal was found to be 0.191 E-score. Then ATACTTAC, with 0.212 E-score. Under TCAAGTCA stands -0.0697 E-score; under AACGGCCA, -0.116 E-score. Under ACCGTGAC stands 0.0309 E-score; under GTTAAGCA, -0.062 E-score. In the case of AACCTACG, the binding signal is 9.3e-05 E-score.

Consider ACTGATCC, for which the binding signal is 0.0532 E-score. Under ATGATGCA stands 0.0452 E-score; under CATACATA, 0.366 E-score.

For the sequence GATACCAC, the binding signal was -0.00878 E-score. GAGTTGTA registered a binding signal of 0.272 E-score. Under ACATGAAC stands 0.0571 E-score; under TTGATAAA, 0.0496 E-score; under TAGAGGGA, -0.275 E-score. On to AGAGAATC, for which the binding signal was -0.0562 E-score. Then GAAAGGGC, with -0.273 E-score; and AGCCCAAG, with -0.222 E-score.

Take AGTATTGA: the binding signal was 0.229 E-score. Under AAACAGTA stands 0.253 E-score. Take CTTGTGTA: the binding signal turned out to be 0.0875 E-score. GCCATAGC registered a binding signal of -0.0306 E-score. With ACTCGAAG, the binding signal is -0.0857 E-score. In the case of CGCGACTA, the binding signal came out at 0.138 E-score. Then AATCGCGT, with -0.0697 E-score; and CTCGCGGC, with -0.278 E-score.

For the sequence AAGATCAA, the binding signal was determined as 0.16 E-score.

For the sequence CTCAAAAG, the binding signal was -0.292 E-score. Under GACGCTGA stands -0.235 E-score; under ATACCTCC, -0.0703 E-score. The sequence ACATGATC had a binding signal of 0.175 E-score. Under TGGCCTAA stands -0.19 E-score. Regarding GGCGGCGA, the binding signal was -0.15 E-score. AATCTGGT: the binding signal amounted to 0.0319 E-score.

Consider GCTCGGTA, for which the binding signal stood at 0.16 E-score.

In the case of CTGCGATA, the binding signal came out at 0.207 E-score. With ACGGCTTG, the binding signal was -0.117 E-score. Then AGTTGCTG, with 0.0511 E-score; and TAAGGTCA, with 0.00524 E-score; and ATCCTCAA, with 0.0862 E-score.

As for AGGATGCC, the binding signal is -0.199 E-score. ATCTGCAT had a binding signal of 0.125 E-score. Under AAATTCAG stands 0.123 E-score; under CTTGGTGA, -0.164 E-score. Then ATTGTCAC, with 0.0843 E-score. Take GCTTGGAA: the binding signal was -0.113 E-score. Under AAGTGCTC stands -0.174 E-score; under GGACGCAA, 0.0476 E-score; under CGTCTGAA, -0.0353 E-score.

As for AATTGGAA, the binding signal is -0.0286 E-score. Then GCTACCGA, with 0.21 E-score. Then CAATCGCC, with -0.27 E-score; and ACCAAAGA, with 0.122 E-score; and CTTGTCGC, with -0.229 E-score. As to GTCATTGA, the binding signal was -0.0517 E-score. Under CGAATTAC stands 0.28 E-score; under GCTTACTA, 0.0602 E-score. As to CAGGATCG, the binding signal is -0.19 E-score. Turning to CACTTATG, the binding signal turned out to be 0.124 E-score. Then GGCCATGA, with -0.266 E-score; and ATGGTCGA, with -0.126 E-score.
